About 540 (0.36%) of roughly 150,000 compounds showed an effect of 50% or more. Some of the results follow.

Data on 42 compounds can be found in ChEMBL document CHEMBL4888484, “Replenishing the malaria drug discovery pipeline: Screening and hit evaluation of the MMV Hit Generation Library 1 (HGL1) against asexual blood stage Plasmodium falciparum ,using a nano luciferase reporter read-out” (2022).

The assay concerns Plasmodium falciparum. Put plainly: Primary screen in NF54 nanoGlo assay, in single point, at 2uM, 72h; a lower Z score goes with more inhibition. Format: functional, Erythrocyte. The note with it: timepoint 72 hour.
As for `Cc1noc([C@@H]2CCCN2S(=O)(=O)CCC2CC2)n1`, the “% Inhibition” value is reported as 21% and the Z score is reported as -2.64.

Take `Cc1cc(CN(C)[C@H]2CCN(CC(F)(F)F)C2=O)no1`: the “% Inhibition” value is recorded as 3% and the Z score is on record as -0.41.

On to `CC(=O)N1CCC[C@](c2nnnn2CCC(C)C)(N2CCN(c3ccccc3F)CC2)C1`, for which the “% Inhibition” value is given as 0% and the Z score amounted to 0.05.

Take `CCc1cc(-c2ccc(C(=O)N[C@H]3CC[C@H](O)CC3)cc2)nc(N(C)C)n1`: the “% Inhibition” value is recorded as -5% and the Z score worked out at 0.71.

Consider `C[C@H]1CN(CC(C)(C)O)CCN1C(=O)NCC1CC(F)(F)C1`, for which the “% Inhibition” value is reported as -9% and the Z score was determined as 1.45.

On to `Cc1cc(O)n2nc(Cc3nc(-c4ccccc4C(F)(F)F)no3)nc2n1`, for which the “% Inhibition” value came to 1% and the Z score was -0.21.

Consider `O=S(=O)(N[C@H]1CCCN(C2CCCCCC2)C1)c1cc2ccccc2o1`, for which the “% Inhibition” value was -7% and the Z score was determined as 1.36.

Regarding `CCN(C[C@H](C)C#N)C(=O)c1cc(F)cc(Cl)c1O`, the “% Inhibition” value is -10% and the Z score is 0.99.

With `COc1cc(CNc2ncc(C(N)=O)s2)cc(OC)c1OC`, the “% Inhibition” value is recorded as -5% and the Z score worked out at 0.75.

On to `C=CCN(C)C(=O)c1cnn2c3c(cnc12)CCCCCC3`, for which the “% Inhibition” value was -4% and the Z score turned out to be 0.64.

For the compound `Cc1ccc(-c2cn3ccn(-c4ccc5c(c4)CCC5)c(=O)c3n2)c(C)c1`, the “% Inhibition” value was -17% and the Z score stood at 2.29.

Regarding `COC(=O)[C@@H]1CN(C(=O)c2ccn(C)n2)c2ccc(F)cc2O1`, the “% Inhibition” value is -10% and the Z score is recorded as 1.98.

For the compound `Cc1ccc(O)c(NC(=O)c2nn3c(c2Cl)N[C@@H](c2cccs2)C[C@H]3C(F)(F)F)c1`, the “% Inhibition” value is 8% and the Z score is on record as -1.22.

For the compound `COCCN1C(=O)c2ccccc2C(C(=O)NCCN2CCOCC2)C1c1ccc(F)cc1` (centres undefined), the “% Inhibition” value stood at 1% and the Z score was -0.2.

In the case of `Cc1noc2ncnc(NC[C@H]3Cc4ccccc43)c12`, the “% Inhibition” value is reported as -6% and the Z score was determined as 1.

In the case of `O=C(Cc1noc(C2(c3ccccc3)CC2)n1)NC1CCCCC1`, the “% Inhibition” value is on record as -8% and the Z score was found to be 1.04.

For `O=C(Nc1ccc(Oc2nncc3ccccc23)cc1)C(F)F`, the “% Inhibition” value is reported as 43% and the Z score was -3.86.

With `Cc1nn(C)c2nc(N3CCC(C#N)CC3)sc12`, the “% Inhibition” value is -7% and the Z score is given as 1.23.

As to `C[C@@H](C(=O)NCc1cccs1)N(C)Cc1cccc(Cl)c1Cl`, the “% Inhibition” value is reported as 6% and the Z score is listed as -0.88.

Take `Cn1cccc1C(=O)NCc1cccc(NC(=O)c2cccn2C)c1`: the “% Inhibition” value was -10% and the Z score is reported as 1.23.

As for `Cc1nc2c(c(N(C)Cc3nnc4n3CCN(C)C4=O)n1)CCCC2`, the “% Inhibition” value is listed as -7% and the Z score was 1.21.

`O=C(NCCCn1nccc1C1CC1)c1cnn[nH]1`: the “% Inhibition” value came out at 2% and the Z score is given as -0.32.

Consider `COc1ccc(CCC(=O)N2CC(OCc3ccc(F)cc3Cl)C2)cc1`, for which the “% Inhibition” value is listed as -24% and the Z score is given as 2.24.

With `Cn1c(=O)c(-c2ccc(C(=O)NCc3cc(F)cc(F)c3)cc2)nc2cccnc21`, the “% Inhibition” value is reported as -3% and the Z score was 0.49.

In the case of `Cc1cccc(C(=O)N2CC[C@@H]3OCC(=O)N[C@H]3C2)c1C`, the “% Inhibition” value is reported as -1% and the Z score is 0.21.

On to `O=C(C[C@H]1CCOC2(CCN(C(=O)c3cccc4[nH]ccc34)CC2)C1)N1CCCC1`, for which the “% Inhibition” value is listed as -8% and the Z score was 0.87.

As for `O=c1[nH]c(-c2ccccc2)c[n+]2ccccc12`, the “% Inhibition” value turned out to be 5% and the Z score is recorded as -0.64.

For `CCn1c(=O)n(Cc2cnc(C)s2)c2ccccc21`, the “% Inhibition” value is reported as -8% and the Z score was determined as 1.29.

With `COc1ccc(-c2cnc3ncnn3c2N2CCCN(S(=O)(=O)c3ccc(F)cc3F)CC2)cc1OC`, the “% Inhibition” value was -12% and the Z score is on record as 1.17.

Turning to `O=C(C#Cc1ccccc1)N(CC1CCN(Cc2ccccc2F)CC1)C[C@H]1CCCO1`, the “% Inhibition” value stood at 1% and the Z score is listed as -0.14.

As to `CS(=O)(=O)NCCN(Cc1csc(C2CC2)n1)C1CC1`, the “% Inhibition” value is on record as -6% and the Z score stood at 0.77.

On to `C[C@@H](CS(C)(=O)=O)NC(C)(C)Cc1cccc(Br)c1`, for which the “% Inhibition” value was -3% and the Z score turned out to be 0.48.

In the case of `Cc1noc(C)c1Cc1nnc2sc(C3CC3)nn12`, the “% Inhibition” value was -8% and the Z score was found to be 0.84.

On to `Cc1nc(CN2CCN(S(=O)(=O)c3ccc(C(N)=O)o3)CC2)nc2ccccc12`, for which the “% Inhibition” value was -10% and the Z score turned out to be 0.94.

With `O=C(NC[C@H]1Cn2cc(-c3ccc4c(c3)OCCCO4)nc2CO1)c1cccs1`, the “% Inhibition” value is listed as 12% and the Z score is given as -1.4.

In the case of `CCn1nc2nc(Nc3cc(C)cc(C)c3)cc(C)n2c1=O`, the “% Inhibition” value is -19% and the Z score is on record as 2.06.

As for `CN(c1cccc(NC(=O)c2ccccc2)c1)S(C)(=O)=O`, the “% Inhibition” value is reported as -19% and the Z score is given as 2.43.

Turning to `CC(C)CCC1CCN([C@@H](C)C(=O)O)CC1`, the “% Inhibition” value is -2% and the Z score is recorded as 0.19.

As for `Cc1cc(C)n(-c2ccc(C(N)=NO[C@H]3CCCc4ccc(F)cc43)cn2)n1`, the “% Inhibition” value was found to be 15% and the Z score is -1.61.

With `C=CCNC(=O)C1(NC(=O)c2cc(Cn3cc(C)cn3)on2)CCCCC1`, the “% Inhibition” value was 2% and the Z score is reported as -0.32.

For the compound `CC(C)c1ccc(CN2CCCN(c3ccc(NC(=O)c4ccc(F)cc4F)cc3)C2=O)cc1`, the “% Inhibition” value is given as -3% and the Z score was determined as 0.28.

As for `Cc1cnc(NCCc2nc3ccccc3c(=O)[nH]2)nc1-c1ncnn1C`, the “% Inhibition” value is -9% and the Z score is listed as 1.29.

The term % Inhibition denotes the drop in the measured response relative to a control, in per cent.
